Common to all, as to assay: Viability of human cancer cell lines after 72 h of drug (GDSC screen)
Compound in one assay: CC/C(=C(\c1ccccc1)c1ccc(OCCN(C)C)cc1)c1ccccc1 [Tamoxifen]
Particulars: top dose 5 µM. As for the experimental part: (§1)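 Human cancer cell lines in 384-well plates, medium with 10% serum, drug for 72 h over a 256-fold dose range (nine 2-fold or five 4-fold steps up to the top dose). Adherent lines were fixed and stained with the nucleic acid dye Syto60, suspension lines read with resazurin; signal relative to control wells, capped at 0 and 100%. One two-parameter sigmoid per drug and line, fitted in a mixed model over all curves with the slope shared within a line.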

Compound in the next assay: CCCC(=O)OCc1ccc(OC(=O)/C=C(C)/C=C/C=C(C)/C=C/C2=C(C)CCCC2(C)C)cc1 [VNLG/124]
Particulars: top dose 5.12 µM; top dose inferred. The procedure:
as §1

Compound in the next assay: CN(NC(=O)CC(=O)NN(C)C(=S)c1ccccc1)C(=S)c1ccccc1 [Elesclomol]
As to conditions: top dose 0.2 µM; top dose inferred. As for the experimental part: as §1

Compound in the next assay: Cc1c(N)nc([C@H](CC(N)=O)NC[C@H](N)C(N)=O)nc1C(=O)N[C@H](C(=O)N[C@H](C)[C@@H](O)[C@H](C)C(=O)N[C@H](C(=O)NCCc1nc(-c2nc(C(=O)NCCC[S+](C)C)cs2)cs1)[C@@H](C)O)[C@@H](OC1OC(CO)C(O)C(O)C1OC1OC(CO)C(O)C(OC(N)=O)C1O)c1cnc[nH]1 [Bleomycin]
The procedure:
as §1

Compound in another assay: Cc1ccc(NC(=O)c2ccc(CN3CCN(C)CC3)cc2)cc1Nc1nc(-c2cccnc2)cs1 [Masitinib]
As to conditions: top dose 20 µM. The procedure:
as §1

Compound in the next assay: O=C(/C=C/c1ccc(CN(CCO)CCc2c[nH]c3ccccc23)cc1)NO [LAQ824]
Particulars: top dose 1.024 µM; top dose inferred. As for the experimental part: as §1

Compound in the next assay: O=C(Nc1ccc(OC(F)(F)F)cc1)c1sccc1NCc1ccnc2ccccc12 [OSI-930]
As to conditions: top dose 10.24 µM. The procedure:
as §1

Compound in a further assay: O=C(Nc1cccc(Nc2ncc(Br)c(NCCc3cnc[nH]3)n2)c1)N1CCCC1 [BX-912]
Particulars: top dose 10.24 µM; top dose inferred. The procedure:
as §1

Compound in a further assay: O=S(=O)(O)c1ccc2cc(N=Nc3cc(S(=O)(=O)O)c4cccnc4c3O)ccc2c1 [NSC-87877]
Particulars: top dose 16 µM; top dose inferred. As for the experimental part:
as §1

The mark [1] stands for this setting: top dose 50 µM, screen: GDSC drug entry 1378, top dose inferred.
Where [2] appears, read: top dose 64 µM, screen: GDSC drug entry 190.

A lower IC50 marks a more sensitive line; a fit beyond the top or the lowest dose is shown as a bound at that dose. For AUC the same curve is integrated over the 256-fold range of doses and scaled to a fraction; it is 1 without any effect and falls as sensitivity rises. For part of these data: Where the top dose is marked as inferred, it comes from the curve model; the source does not state it. For part of these data: Where an entry number is given, a second screen of the drug exists; the two often differ.

CTB-1 (B-cell lymphoma, suspension): the AUC with Tamoxifen is 0.912; with VNLG/124 it was 0.917; with Elesclomol, 0.542; with Bleomycin (setting [1]), 0.825; with Bleomycin (setting [2]), 0.128; with Masitinib, 0.845. Further, the AUC in the assay with LAQ824 turned out to be 0.353; with OSI-930 it was 0.967; with BX-912, 0.83; with NSC-87877 it was 0.959. Further, the IC50 with Tamoxifen was above 5 µM; with VNLG/124, above 5.12 µM; in the assay with Elesclomol, 0.017 µM; with Bleomycin (setting [1]), 45.7 µM; with Bleomycin (setting [2]), below 0.25 µM; with Masitinib, above 20 µM. In addition, the IC50 with LAQ824 was 0.0215 µM; with OSI-930, above 10.2 µM; with BX-912 it was 9.91 µM; in the assay with NSC-87877, above 16 µM.
For the cell line OPM-2 (myeloma, suspension), the AUC was determined as 0.993 with Tamoxifen; 0.993 with VNLG/124; 0.955 with Elesclomol; 0.983 with Bleomycin (setting [1]); 0.919 with Bleomycin (setting [2]); 0.877 with Masitinib. Also, the AUC was 0.359 with LAQ824, 0.968 with OSI-930, 0.581 in the assay with BX-912 and 0.991 with NSC-87877. Also, the half-inhibitory concentration (IC50) with Tamoxifen was above 5 µM; with VNLG/124, above 5.12 µM; in the assay with Elesclomol it was above 0.2 µM; in the assay with Bleomycin (setting [1]), above 50 µM; with Bleomycin (setting [2]) it was above 64 µM; with Masitinib it was 13.9 µM. Also, the IC50 is 0.0282 µM in the assay with LAQ824, above 10.2 µM with OSI-930, 1.02 µM with BX-912 and above 16 µM in the assay with NSC-87877.
On to OSC-20 (head and neck, adherent), for which the AUC with Tamoxifen amounted to 0.98; with VNLG/124, 0.974; with Elesclomol it was 0.793; in the assay with Bleomycin (setting [1]), 0.418; with Bleomycin (setting [2]), 0.607; with Masitinib, 0.872. In addition, the AUC with LAQ824 was determined as 0.519; in the assay with OSI-930 it was 0.968; in the assay with BX-912 it was 0.881; in the assay with NSC-87877, 0.967. Besides, the IC50 is above 5 µM in the assay with Tamoxifen; above 5.12 µM in the assay with VNLG/124; 0.111 µM with Elesclomol; 1.78 µM in the assay with Bleomycin (setting [1]); 8.33 µM with Bleomycin (setting [2]); above 20 µM with Masitinib. Also, the IC50 was 0.0727 µM in the assay with LAQ824, above 10.2 µM with OSI-930, above 10.2 µM in the assay with BX-912 and above 16 µM in the assay with NSC-87877.
Take HD-MY-Z (Hodgkin lymphoma, adherent): the AUC in the assay with Tamoxifen amounted to 0.984; with VNLG/124, 0.97; with Elesclomol it was 0.387; in the assay with Bleomycin (setting [1]) it was 0.133; with Bleomycin (setting [2]), 0.238; in the assay with Masitinib, 0.863. In addition, the AUC with LAQ824 came out at 0.711; with OSI-930, 0.945; with BX-912, 0.819; with NSC-87877 it was 0.972. Further, the half-inhibitory concentration (IC50) with Tamoxifen is above 5 µM; in the assay with VNLG/124 it was above 5.12 µM; with Elesclomol it was 0.00609 µM; in the assay with Bleomycin (setting [1]), 0.214 µM; in the assay with Bleomycin (setting [2]), 0.697 µM; with Masitinib, 17.4 µM. Moreover, the half-maximal inhibitory concentration (IC50) with LAQ824 is 0.254 µM; with OSI-930, above 10.2 µM; in the assay with BX-912, 5.89 µM; with NSC-87877, above 16 µM.
On to TE-11 (oesophagus, adherent), for which the AUC with Tamoxifen turned out to be 0.977; with VNLG/124 it was 0.989; with Elesclomol, 0.846; in the assay with Bleomycin (setting [1]) it was 0.411; with Bleomycin (setting [2]) it was 0.495; with Masitinib it was 0.979. The AUC in the assay with LAQ824 came out at 0.49; with OSI-930 it was 0.982; in the assay with BX-912, 0.963; in the assay with NSC-87877, 0.985. Besides, the IC50 in the assay with Tamoxifen was above 5 µM; with VNLG/124, above 5.12 µM; with Elesclomol, 0.127 µM; with Bleomycin (setting [1]), 1.82 µM; with Bleomycin (setting [2]), 3.87 µM; with Masitinib it was above 20 µM. The concentration for half-maximal inhibition (IC50) with LAQ824 is 0.0603 µM; in the assay with OSI-930, above 10.2 µM; with BX-912, above 10.2 µM; with NSC-87877 it was above 16 µM.
Turning to MRK-nu-1 (breast, suspension), the AUC with Tamoxifen came out at 0.988; in the assay with VNLG/124 it was 0.973; with Elesclomol, 0.979; with Bleomycin (setting [1]), 0.896; with Bleomycin (setting [2]) it was 0.367; with Masitinib it was 0.99. Besides, the AUC with LAQ824 was found to be 0.586; with OSI-930 it was 0.967; in the assay with BX-912, 0.99; in the assay with NSC-87877, 0.977. Also, the IC50 in the assay with Tamoxifen was above 5 µM; with VNLG/124 it was above 5.12 µM; in the assay with Elesclomol, above 0.2 µM; with Bleomycin (setting [1]), above 50 µM; with Bleomycin (setting [2]) it was 1.78 µM; with Masitinib, above 20 µM. For the same cell line, the IC50 in the assay with LAQ824 was 0.107 µM; with OSI-930 it was above 10.2 µM; with BX-912, above 10.2 µM; in the assay with NSC-87877 it was above 16 µM.

The term IC50 denotes the concentration that inhibits the measured activity by half.

These data come from the supplement of paper PMC4967469.
